Reference: the supplement of paper PMC10320760
This is a noisy data set.

B1: Ydj1; a variant is named by its letters at X, in order (parent)
chain: MVKETKFYDILGVPVTATDVEIKKAYRKCALKYHPDKNPSEEAAEKFKEASAAYEILSDPEKRDIYDQFGEDGLSGAGGAGGFPGGGFGFGDDIFSQFFGAGGAQRPRGPQRGKDIKHEISASLEELYKGRTAKLALNKQILCKECEGRGGKKGAVKKCTSCNGQGIKFVTRQMGPMIQRFQTECDVCHGTGDIIDPKDRCKSCNGKKVENERKILEVHVEPGMKDGQRIVFKGEADQAPDVIPGDVVFIVSERPHKSFKRDGDDLVYEAEIDLLTAIAGGEFALEHVSGDWLKVGIVPGEVIAPGMRKVIEGKGMPIPKYGGYGNLIIKFTIKFPENHFTSEENLKKLEEILPPRIVPAIPKKATVDECVLADFDPAKYNRTRASRGGANYDSDEEEQGGEGVQCXXX

Variants of: B1
Test: enrichment factor, frequency at 37 °C / frequency at 25 °C (thermotolerance selection) (ratio); higher = more growth at 37 °C, higher likelihood of farnesylation
Settings: with Saccharomyces cerevisiae ydj1Δ (yWS304); selective temperature 37 °C; reference temperature 25 °C
Work on SWF yielded an enrichment factor of 1.76.
For SWN, the enrichment factor was 1.78.
SWK showed an enrichment factor of 0.172.
For SWQ, the enrichment factor was 2.57.
SWA gave an enrichment factor of 0.827.
SWD showed an enrichment factor of 0.798.
Variant SWH has an enrichment factor of 2.12.
SWE gave an enrichment factor of 1.82.
SWM gave an enrichment factor of 1.47.
Variant SWG has an enrichment factor of 1.29.
SWL gave an enrichment factor of 1.41.
Work on SWS yielded an enrichment factor of 1.2.
For SWR, the enrichment factor was 0.124.
Variant SWC has an enrichment factor of 0.965.
For SWI, the enrichment factor was 1.39.
SWP was tested, and the enrichment factor was 0.174.
In the case of PVY, the enrichment factor is reported as 0.93.
QVY was tested, and the enrichment factor was 1.69.
In the case of YVY, the enrichment factor is reported as 2.84.
With TVY the enrichment factor was 1.13.
In the case of IWD, the enrichment factor is reported as 1.71.
With IWH the enrichment factor was 1.64.
IWF showed an enrichment factor of 0.906.
Variant IWA has an enrichment factor of 0.29.
With IWK the enrichment factor was 0.526.
For IWP, the enrichment factor was 0.211.
IWS was tested, and the enrichment factor was 2.15.
For IWM, the enrichment factor was 1.16.
IWG showed an enrichment factor of 2.08.
IWE was tested, and the enrichment factor was 1.19.
For IWN, the enrichment factor was 1.54.
In the case of IWL, the enrichment factor is reported as 1.78.
IWQ gave an enrichment factor of 1.54.
Work on IWC yielded an enrichment factor of 0.695.
IWR was tested, and the enrichment factor was 1.25.
In the case of IWI, the enrichment factor is reported as 1.43.
YWI showed an enrichment factor of 1.24.
For YWG, the enrichment factor was 2.56.
YWQ showed an enrichment factor of 2.51.
Work on YWD yielded an enrichment factor of 0.305.
YWA gave an enrichment factor of 1.91.
For YWM, the enrichment factor was 1.16.
Variant YWR has an enrichment factor of 0.0969.
Work on YWF yielded an enrichment factor of 1.58.
For YWN, the enrichment factor was 2.72.
YWS showed an enrichment factor of 3.09.
YWE gave an enrichment factor of 0.443.
Variant YWH has an enrichment factor of 0.594.
With YWL the enrichment factor was 1.52.
Work on YWC yielded an enrichment factor of 0.145.
Variant YWP has an enrichment factor of 0.23.
Work on YWK yielded an enrichment factor of 0.172.
With LWK the enrichment factor was 0.769.
Variant LWQ has an enrichment factor of 2.58.
In the case of LWE, the enrichment factor is reported as 1.72.
LWC was tested, and the enrichment factor was 1.16.
For LWI, the enrichment factor was 1.68.
In the case of LWL, the enrichment factor is reported as 2.08.
LWN was tested, and the enrichment factor was 3.47.
Variant LWR has an enrichment factor of 0.239.
For LWS, the enrichment factor was 0.515.
LWA showed an enrichment factor of 0.463.
LWM showed an enrichment factor of 4.05.
Variant LWP has an enrichment factor of 0.151.
For LWD, the enrichment factor was 1.6.
LWG was tested, and the enrichment factor was 0.409.
Work on LWF yielded an enrichment factor of 1.16.
With LWH the enrichment factor was 3.37.
Variant KWG has an enrichment factor of 3.19.
KWP gave an enrichment factor of 0.19.
KWD gave an enrichment factor of 1.52.
Variant KWS has an enrichment factor of 1.81.
With KWI the enrichment factor was 1.06.
KWQ was tested, and the enrichment factor was 3.56.
With KWA the enrichment factor was 1.61.
Work on KWH yielded an enrichment factor of 1.34.
For KWK, the enrichment factor was 0.151.
With KWL the enrichment factor was 0.882.
In the case of KWE, the enrichment factor is reported as 1.75.
KWN showed an enrichment factor of 1.64.
Work on KWR yielded an enrichment factor of 0.207.
In the case of KWM, the enrichment factor is reported as 1.16.
With KWF the enrichment factor was 1.13.
In the case of KWC, the enrichment factor is reported as 0.178.
Work on VWL yielded an enrichment factor of 1.92.
Work on VWG yielded an enrichment factor of 0.993.
With VWC the enrichment factor was 3.09.
With VWA the enrichment factor was 4.63.
VWD showed an enrichment factor of 2.28.
In the case of VWP, the enrichment factor is reported as 0.242.
VWS showed an enrichment factor of 1.16.
In the case of VWR, the enrichment factor is reported as 1.51.
In the case of VWI, the enrichment factor is reported as 4.05.
In the case of VWK, the enrichment factor is reported as 0.938.
Variant VWQ has an enrichment factor of 1.45.
For VWF, the enrichment factor was 0.165.
VWN showed an enrichment factor of 1.16.
VWH gave an enrichment factor of 1.66.
With VWM the enrichment factor was 1.01.
VWE showed an enrichment factor of 1.1.
Work on RVY yielded an enrichment factor of 1.1.
Variant SVY has an enrichment factor of 1.24.
Work on MVY yielded an enrichment factor of 1.57.
HWF gave an enrichment factor of 1.64.
For HWK, the enrichment factor was 0.194.
In the case of HWS, the enrichment factor is reported as 2.
HWP was tested, and the enrichment factor was 0.566.
Work on HWL yielded an enrichment factor of 1.27.
HWM was tested, and the enrichment factor was 0.827.
HWN gave an enrichment factor of 2.23.
For HWG, the enrichment factor was 2.07.
Variant HWH has an enrichment factor of 1.22.
HWR was tested, and the enrichment factor was 0.113.
In the case of HWQ, the enrichment factor is reported as 1.8.
Variant HWC has an enrichment factor of 0.463.
In the case of HWI, the enrichment factor is reported as 1.63.
HWA gave an enrichment factor of 4.85.
With HWD the enrichment factor was 0.309.
HWE showed an enrichment factor of 1.12.
In the case of VVY, the enrichment factor is reported as 1.01.
With FWN the enrichment factor was 2.68.
With FWH the enrichment factor was 0.648.
In the case of FWI, the enrichment factor is reported as 2.17.
With FWL the enrichment factor was 1.89.
FWT was tested, and the enrichment factor was 1.84.
With FWP the enrichment factor was 1.17.
In the case of FWA, the enrichment factor is reported as 2.17.
FWQ was tested, and the enrichment factor was 1.25.
FWM showed an enrichment factor of 1.85.
With FWF the enrichment factor was 1.47.
Work on FWD yielded an enrichment factor of 0.443.
FWC showed an enrichment factor of 0.302.
With FWK the enrichment factor was 0.224.
FWG was tested, and the enrichment factor was 2.04.
FWS gave an enrichment factor of 2.7.
FWR was tested, and the enrichment factor was 0.272.
For FWE, the enrichment factor was 0.431.
CVY was tested, and the enrichment factor was 0.904.
Work on NVY yielded an enrichment factor of 2.9.
TWD gave an enrichment factor of 1.52.
Work on TWH yielded an enrichment factor of 4.32.
TWQ gave an enrichment factor of 2.51.
With TWC the enrichment factor was 0.869.
Variant TWN has an enrichment factor of 1.88.
Variant TWP has an enrichment factor of 0.143.
For TWI, the enrichment factor was 1.32.
For TWR, the enrichment factor was 0.336.
In the case of TWK, the enrichment factor is reported as 0.379.
In the case of TWM, the enrichment factor is reported as 2.32.
TWG gave an enrichment factor of 2.03.
Variant TWL has an enrichment factor of 2.17.
TWE was tested, and the enrichment factor was 2.26.
In the case of TWS, the enrichment factor is reported as 1.65.
TWF gave an enrichment factor of 1.38.
TWA showed an enrichment factor of 3.47.
GWA gave an enrichment factor of 4.29.
GWC showed an enrichment factor of 0.965.
Variant GWF has an enrichment factor of 1.45.
Variant GWD has an enrichment factor of 0.176.
GWR gave an enrichment factor of 0.0616.
GWN gave an enrichment factor of 1.81.
Work on GWI yielded an enrichment factor of 1.12.
GWT showed an enrichment factor of 1.66.
GWG was tested, and the enrichment factor was 2.14.
GWM showed an enrichment factor of 0.98.
GWE showed an enrichment factor of 0.981.
In the case of GWS, the enrichment factor is reported as 1.85.
